# Test results as given in paper PMC6555819.
# The other results are listed elsewhere or left out.
# Target: T1, RARg (Homo sapiens) (UniProt P13631)
# T1 sequence: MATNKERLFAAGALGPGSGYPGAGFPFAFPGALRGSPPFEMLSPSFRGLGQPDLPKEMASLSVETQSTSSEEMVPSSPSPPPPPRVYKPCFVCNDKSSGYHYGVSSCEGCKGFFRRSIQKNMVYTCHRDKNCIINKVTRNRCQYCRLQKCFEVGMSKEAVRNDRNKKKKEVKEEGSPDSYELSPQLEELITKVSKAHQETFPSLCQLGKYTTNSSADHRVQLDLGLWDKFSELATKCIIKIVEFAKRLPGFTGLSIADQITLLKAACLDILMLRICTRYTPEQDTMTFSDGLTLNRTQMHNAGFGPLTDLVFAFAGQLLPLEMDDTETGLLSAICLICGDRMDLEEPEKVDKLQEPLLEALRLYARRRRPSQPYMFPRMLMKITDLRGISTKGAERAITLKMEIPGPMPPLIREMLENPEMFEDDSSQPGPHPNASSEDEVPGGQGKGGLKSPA
# Settings: 270 nM, no RXRa, PBS pH 7.4, 2% milk, 0.02% Triton X-100, 1 mM DTT, BSA, 0.4 mg/ml salmon testes DNA; double strand, one strand shown
row,Sequence,binding signal (PBM z-score against 500 random probes)
1,GCACAATCTCAGCTCACTGCAAAGTTCGCCTTCCAGGCGATTGACAGCGTAGAATGAAGG,-0.06
2,GCATCCCTGCAATGGCCTGCAAAGTTACAGGTTGCAGCGATTGACAGCGTAGAATGAAGG,-0.5
3,GCGAGATCAAGACCATCCTGGCTAACATGGTGAAACGCGATTGACAGCGTAGAATGAAGG,-0.01
4,GCGCAGGAGACTCACTTGTGCATGCAGGGTTGAGGCGCGATTGACAGCGTAGAATGAAGG,-0.79
5,GCTTCCTTTCCATGTTTAGTGCTTCCTTCAGGAGCTGCGATTGACAGCGTAGAATGAAGG,-0.24
6,GCTACACTCTCCCAAGACTAAACCAGGAAGAAGTTGGCGATTGACAGCGTAGAATGAAGG,0.5
7,GCAGAAGAAGACCAAAGTATTCCCTCACTGCCTATGGCGATTGACAGCGTAGAATGAAGG,-0.31
8,GCGCAGTGGGTGATGATGTCACTGGTTAACGTGGCTGCGATTGACAGCGTAGAATGAAGG,0.04
9,GCCAAGGCAGCCAGAACTGATGATTGCACTGTGTGGGCGATTGACAGCGTAGAATGAAGG,-0.43
10,GCTCTCTCACTCTGCTCTTGTTCTCTCGCTCTTTCTGCGATTGACAGCGTAGAATGAAGG,-0.72
11,GCAGGAGAAACCCACGCTGGTGTCATCACAGGTTCAGCGATTGACAGCGTAGAATGAAGG,0.41
12,GCGCATGCCACAGGACTGGTAGGCAGCTCCATCTGCGCGATTGACAGCGTAGAATGAAGG,-0.87
13,GCTAGTCCAGCTGGCTGGAGACTCATGGAAGAACAGGCGATTGACAGCGTAGAATGAAGG,0.09
14,GCGCAGGAGAATCAGGCAGGGAGGTTGCAGTGAGCCGCGATTGACAGCGTAGAATGAAGG,-0.96

# Target: T2, THRa (Homo sapiens) (UniProt P10827)
# T2 sequence: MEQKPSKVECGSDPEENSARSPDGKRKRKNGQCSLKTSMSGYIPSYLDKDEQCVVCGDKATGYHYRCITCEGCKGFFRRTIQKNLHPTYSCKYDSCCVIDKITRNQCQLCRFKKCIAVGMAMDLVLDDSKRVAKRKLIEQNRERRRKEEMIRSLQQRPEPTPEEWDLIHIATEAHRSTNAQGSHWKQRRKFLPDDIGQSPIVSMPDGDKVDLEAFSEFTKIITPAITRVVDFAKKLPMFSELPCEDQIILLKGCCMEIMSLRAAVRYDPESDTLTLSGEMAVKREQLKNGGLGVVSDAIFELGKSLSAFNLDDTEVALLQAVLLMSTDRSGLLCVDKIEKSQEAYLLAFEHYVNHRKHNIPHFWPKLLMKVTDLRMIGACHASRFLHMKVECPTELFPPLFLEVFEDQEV
# Settings: 90 nM, no RXRa, PBS pH 7.4, 2% milk, 0.02% Triton X-100, 1 mM DTT, BSA, 0.4 mg/ml salmon testes DNA; double strand, one strand shown
row,Sequence,binding signal (PBM z-score against 500 random probes)
1,GCATGAGGTACTGATACATGCTACAATGTGTATGTAGCGATTGACAGCGTAGAATGAAGG,-0.8
2,GCGAGAACAGACTAACACACACACACACACACACACGCGATTGACAGCGTAGAATGAAGG,0.38
3,GCCAGGGAGAGAGCCTTGCAAAGATGGAACAATCAGGCGATTGACAGCGTAGAATGAAGG,-0.23
4,GCGGGAGGTGTAAGGATCCTTGTGCACTGCTTGGGAGCGATTGACAGCGTAGAATGAAGG,0.49
5,GCACTATCTTGTGTCTCATCTGAGACATAGATGGATGCGATTGACAGCGTAGAATGAAGG,-1.15
6,GCGCCTAGCAGTCTATACAATTCTGAAGGATGCACCGCGATTGACAGCGTAGAATGAAGG,-0.66
7,GCATGTTAGAGCTCATGGAGAAGTGTCCTATGTGATGCGATTGACAGCGTAGAATGAAGG,-1.05
8,GCATGGTGATGAAAGCAAAGGAGTAATGTTTCTGTGGCGATTGACAGCGTAGAATGAAGG,-0.08
9,GCCATGTGGACTTCATTCGACCCAGCTGAGAAGACTGCGATTGACAGCGTAGAATGAAGG,0.26
10,GCCAAGACCATCCTGGCTAACACAGTGAAACCCTGTGCGATTGACAGCGTAGAATGAAGG,-0.55
11,GCGAGAATGGTCAGTACATTCAACCATGAATTCAAGGCGATTGACAGCGTAGAATGAAGG,-0.41
12,GCAAGCATAGCTTTGAGAGCAGTAAAGTGGTTCATTGCGATTGACAGCGTAGAATGAAGG,-1.27
13,GCCATCCTGTAAGACACTTCCTCTAAGAAATGGCTAGCGATTGACAGCGTAGAATGAAGG,0.13
14,GCTAGTGAGTGAGTTCTCACAAGAAATGGTTGTTTAGCGATTGACAGCGTAGAATGAAGG,-0.3
15,GCGCAGGAGAATCAGGCAGGGAGGTTGCAGTGAGCCGCGATTGACAGCGTAGAATGAAGG,-0.35
16,GCGCCTTCTGCTACAGGGCAAAGGTGGCACACAAAGGCGATTGACAGCGTAGAATGAAGG,-0.71
